# This is one part of the list.
# Key:
# Assay in all cases: glycan array binding signal (z-score within array); higher = stronger binding
# Settings in all cases: glycan notation: IUPAC condensed, linker removed
# [1] = molecular target: Gal(b1-4)GlcNAc(b1-3)Gal(b1-4)GlcNAc(b1-6)[Gal(b1-3)]GalNAc
# Summary of the method: (§1)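 Negative Z-scores can be read as non-binding. The Z-score is calculated within each array and then averaged across arrays of one protein sequence at different concentrations or buffers and across linkers. Arrays, 3228 in all, were curated from the Consortium for Functional Glycomics database and kept only where the protein sequence was available.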
# [2] = molecular target: Gal(b1-4)GlcNAc(b1-3)Gal(b1-4)[Fuc(a1-3)]GlcNAc(b1-3)Gal(b1-4)[Fuc(a1-3)]GlcNAc
# Summary of the method: as §1
# [3] = molecular target: Gal(b1-4)GlcNAc(b1-3)GalNAc
# Summary of the method: as §1
# [4] = molecular target: Gal(b1-4)GlcNAc(b1-3)[Fuc(a1-3)GlcNAc(b1-6)]Gal(b1-4)Glc
# Summary of the method: as §1
# [5] = molecular target: Gal(b1-4)GlcNAc(b1-3)[Gal(b1-4)GlcNAc(b1-6)]Gal(b1-4)GlcNAc
# Summary of the method: as §1
# [6] = molecular target: Gal(b1-4)GlcNAc(b1-3)[GlcNAc(b1-6)]Gal(b1-4)GlcNAc
# Summary of the method: as §1
# [7] = molecular target: Gal(b1-4)GlcNAc(b1-6)Gal(b1-4)GlcNAc
# Summary of the method: as §1
# [8] = molecular target: Gal(b1-4)GlcNAc(b1-6)GalNAc
# Summary of the method: as §1
# [9] = molecular target: Gal(b1-4)GlcNAc(b1-6)[Gal(b1-3)]GalNAc
# Summary of the method: as §1
# [10] = molecular target: Gal(b1-4)GlcNAc(b1-6)[Gal(b1-4)GlcNAc(b1-3)]GalNAc
# Summary of the method: as §1
# [11] = molecular target: Gal(b1-4)GlcNAc6P
# Summary of the method: as §1
# [12] = molecular target: Gal(b1-6)Gal
# Summary of the method: as §1
# [13] = molecular target: Gal3S(b1-3)GalNAc
# Summary of the method: as §1
# [14] = molecular target: Gal3S(b1-3)GlcNAc
# Summary of the method: as §1
# [15] = molecular target: Gal3S(b1-3)[Fuc(a1-4)]GlcNAc
# Summary of the method: as §1
# [16] = molecular target: Gal3S(b1-4)Glc
# Summary of the method: as §1
# [17] = molecular target: Gal3S(b1-4)Glc6S
# Summary of the method: as §1
# [18] = molecular target: Gal3S(b1-4)GlcNAc
# Summary of the method: as §1
# [19] = molecular target: Gal3S(b1-4)[Fuc(a1-3)]Glc6S
# Summary of the method: as §1
# [20] = molecular target: Gal3S(b1-4)[Fuc(a1-3)]GlcNAc
# Summary of the method: as §1
# [21] = molecular target: Gal3S(b1-4)[Fuc(a1-3)]GlcNAc6S
# Summary of the method: as §1
# [22] = molecular target: Gal3S4S(b1-4)GlcNAc
# Summary of the method: as §1
# [23] = molecular target: Gal3S6S(b1-4)GlcNAc
# Summary of the method: as §1
# [24] = molecular target: Gal3S6S(b1-4)GlcNAc6S
# Summary of the method: as §1
# [25] = molecular target: Gal4S(b1-4)GlcNAc
# Summary of the method: as §1
# [26] = molecular target: Gal4S6S(b1-4)GlcNAc
# Summary of the method: as §1
# [27] = molecular target: Gal6P(b1-4)GlcNAc
# Summary of the method: as §1
# [28] = molecular target: Gal6S(b1-3)GlcNAc
# Summary of the method: as §1
# [29] = molecular target: Gal6S(b1-3)GlcNAc6S
# Summary of the method: as §1
# [30] = molecular target: Gal6S(b1-4)Glc
# Summary of the method: as §1
# [31] = molecular target: Gal6S(b1-4)Glc6S
# Summary of the method: as §1
# [32] = molecular target: Gal6S(b1-4)GlcNAc
# Summary of the method: as §1
# [33] = molecular target: Gal6S(b1-4)GlcNAc6S
# Summary of the method: as §1
# [34] = molecular target: GalNAc(a1-3)Gal
# Summary of the method: as §1
# [35] = molecular target: GalNAc(a1-3)GalNAc
# Summary of the method: as §1
# [36] = molecular target: GalNAc(a1-3)GalNAc(b1-3)Gal(a1-4)Gal(b1-4)Glc
# Summary of the method: as §1
# [37] = molecular target: GalNAc(a1-3)GalNAc(b1-3)Gal(a1-4)Gal(b1-4)GlcNAc
# Summary of the method: as §1
binder,measurement,setting,value
Nc3LysM (protein) QFTVPPDTTAEPNTIKTCTWWHVAGSGDSCTSIASTYGITSEQFARWDMETTDSPKNPSVATACKLTVGNSYCIENNFGQDDPPTPSISSSTLIGTATTSTTASTTTGNGISTPTPIQEGMETATTTTSSGNGITTPTPTQAGMETVGNCDRFHLVKSGDQCGTIASTYGITLANFYSWNPAVGTSCQSLWLDTYVCVRTIGFVPPKTTTTTTKKPTSTTSAGGVATPTPTQPGMETVSGCKKFHKGRGNVSTVASGDQCGTIATRYGISLANFYSWNPAVGSSCQTLWLDYYVCVGR,glycan array binding signal (z-score),[1],0.04
same,glycan array binding signal (z-score),[2],-0.035
same,glycan array binding signal (z-score),[3],-0.127
same,glycan array binding signal (z-score),[4],-0.089
same,glycan array binding signal (z-score),[5],-0.305
same,glycan array binding signal (z-score),[6],-0.098
same,glycan array binding signal (z-score),[7],-0.133
same,glycan array binding signal (z-score),[8],0.01
same,glycan array binding signal (z-score),[9],-0.15
same,glycan array binding signal (z-score),[10],-0.065
same,glycan array binding signal (z-score),[11],-0.025
same,glycan array binding signal (z-score),[12],-0.241
same,glycan array binding signal (z-score),[13],0.037
same,glycan array binding signal (z-score),[14],-0.104
same,glycan array binding signal (z-score),[15],-0.101
same,glycan array binding signal (z-score),[16],-0.026
same,glycan array binding signal (z-score),[17],-0.09
same,glycan array binding signal (z-score),[18],-0.013
same,glycan array binding signal (z-score),[19],0.037
same,glycan array binding signal (z-score),[20],0.229
same,glycan array binding signal (z-score),[21],0.178
same,glycan array binding signal (z-score),[22],-0.1
same,glycan array binding signal (z-score),[23],-0.145
same,glycan array binding signal (z-score),[24],-0.126
same,glycan array binding signal (z-score),[25],-0.249
same,glycan array binding signal (z-score),[26],-0.245
same,glycan array binding signal (z-score),[27],-0.273
same,glycan array binding signal (z-score),[28],0.119
same,glycan array binding signal (z-score),[29],-0.161
same,glycan array binding signal (z-score),[30],-0.123
same,glycan array binding signal (z-score),[31],0.307
same,glycan array binding signal (z-score),[32],-0.15
same,glycan array binding signal (z-score),[33],-0.294
same,glycan array binding signal (z-score),[34],0.117
same,glycan array binding signal (z-score),[35],0.061
same,glycan array binding signal (z-score),[36],-0.158
same,glycan array binding signal (z-score),[37],-0.276

# Reference: the supplement of paper PMC8728848
